From PubChem BioAssay AID1745853 (National Center for Advancing Translational Sciences (NCATS), 2022) come the findings set out here.

The other results are listed elsewhere or left out. The main result of the screen is listed elsewhere. These columns were measured beside it and carry no call.

Test in all cases: Primary Screen for Target Class Profiling of Small Molecule Inhibitors of Methyltransferases
For experiment [1], the target named is Glycine N-methyltransferase (Homo sapiens) (UniProt Q14749). The settings on record: purified enzyme, MTase-Glo SAH luminescence; measured here: GNMT inhibition; at 40 µM; stronger effect = lower value. An excerpt: (§1) PI: Matthew D. Hall Ph.D. and Quinlin M. Hanson Ph.D.
(§2) National Center for Advancing Translational Sciences (NCATS)
(§3) National Institute of Health (NIH), Rockville, MD
(§4) Target class profiling (TCP) is a chemical biology approach amenable to investigating understudied biological targets. TCP is achieved by developing a generalizable assay platform and applying it to screen a curated set of compound libraries against representative members of a target class. Small molecule methyltransferases (SMMTase) are a subclass of methyltransferase that act on metabolites to modulate signaling pathways, metabolize xenobiotics, or balance the available methyl pool. We screened four curated libraries totaling 27,574 unique compounds against the SMMTases nicotinamide N-methyltransferase (NNMT), phenylethanolamine N-methyltransferase (PNMT), histamine N-methyltransferase (HNMT), glycine N-methyltransferase (GNMT), catechol O-methyltransferase (COMT), and guanidinoacetate N-methyltransferase (GAMT). The data generated by this TCP can be leveraged for informed tool molecule development. For example, in the associated publication we identified a chemotype of HNMT-selective inhibitors. Additionally, we identified a putative SMMTase-selective inhibitor with potential as a tool molecule for studying broader methyltransferase biology.
(§5) High-through put screening assays were developed at the National Center for Advancing Translational Science (NCATS) for the enzymes NNMT, PNMT, HNMT, GNMT, COMT, and GAMT. Enzymatic activity was measured as a function of SAM cofactor conversion using the MTase Glo kit (Promega) for all enzymes. All assays were performed in 1536-well format with substrates and SAM concentrations at KM values. Enzyme concentration and assay timing were optimized for 10-20% SAM conversion. Initial screening of 27,574 compounds was done as single-point assays using the highest compound concentration (40 uM). […] These compounds were replated in 11-point dose response and assayed against NNMT, PNMT, HNMT, GNMT, COMT, GAMT, and a counter-assay. The IC50 and efficacy (maximal response) values were determined for each dose-response curve. These values are also accounted for in the area under the curve (AUC) values.
(§6) PROTOCOL TABLE (as described by Inglese J, Shamu CE and Guy RK. 2007)
(§7) SEQUENCE No. (e.g., 1, 2, 3, etc.); […] (e.g., Cells, Incubation, Reagent, etc.); VALUE; DESCRIPTION.
(§8) 1; Reagent; 2 uL; SMMTase Enzyme (2x) in reaction buffer, columns 1- 48.
(§9) 2; Reagent; 1 uL; SAM (4x) in reaction buffer, columns 1-48.
(§10) 3; Controls; 23 nL; DMSO in column 4; sinefungin in DMSO (0 uM - 40 uM) in 7-point 1:2 dilution series (n = 2) in column 2.
(§11) 4; Compounds; 23 nL; Columns 5-48.
(§12) 5; Reagent; 1 uL; Substrate (4x) in reaction buffer, columns 2-48.
(§13) 6; Time; 20-30 min; Incubation.
(§14) 7; Reagent; 1 uL; MTase-Glo reagent (5X), columns 1-48.
(§15) 8; Time; 30 min; Incubation.
(§16) 9; Reagent; 5 uL; MTase-Glo Detection reagent, columns 1-48.
(§17) 10; Time; 30 min; Incubation, luminescence evolution.
(§18) 11; Detection; Luminescence; ViewLux uHTS Microplate Imager (PerkinElmer).
(§19) NOTES (numbers refer to Sequence numbers above)
(§20) 1, 2, 5. White Medium Binding Greiner 1536-well plates (Cat #789175-F, Greiner Bio-One, Monroe, NC); Reaction buffer: 50 mM Tris, pH 8.0, 3 mM MgCl2, 1 mM EDTA, 50 mM NaCl, 1 mM DTT, and 0.1 mg/mL BSA. Evaporation was prevented by covering assay plates with metal lids containing holes to allow gas diffusion.
(§21) 1. Six SMMTase were profiled: HNMT, GNMT, PNMT, COMT, NNMT, GAMT
(§22) 5. The corresponding substrate was used for each enzyme: HNMT - 5.3 uM Histamine; GNMT - >500 uM Glycine; PNMT - 16.2 uM Norephinephrine; COMT - 13.7 uM Norephinephrine; NNMT - 3.8 uM Nicotinamide; GAMT - 2.5 uM Guanidinoacetate.6, 8, 10. Room temperature
(§23) 6. Final reaction conditions: 10 nM COMT, 5 uM SAM, 15 uM norepinephrine, 50 mM Tris, pH 8.0, 3 mM MgCl2, 1 mM EDTA, 50 mM NaCl, 1 mM DTT, and 0.1 mg/mL BSA; refer to tables 2 and S1 for specific timing.
8. […]

Experiment [2] has as its target Guanidinoacetate N-methyltransferase (Homo sapiens) (UniProt Q14353). The settings on record: purified enzyme, MTase-Glo SAH luminescence; measured here: GAMT inhibition; at 40 µM; stronger effect = lower value.
Excerpt: as §1, §2, §3, §4, §5, §6, §7, §8, §9, §10, §11, §12, §13, §14, §15, §16, §17, §18, §19, §20, §21, §22, §23
8. […]

The target of experiment [3] is Histamine N-methyltransferase (Homo sapiens) (UniProt P50135). The note with it: purified enzyme, MTase-Glo SAH luminescence; measured here: HNMT inhibition; at 40 µM; stronger effect = lower value.
Excerpt: as §1, §2, §3, §4, §5, §6, §7, §8, §9, §10, §11, §12, §13, §14, §15, §16, §17, §18, §19, §20, §21, §22, §23
8. […]

In experiment [4] the target is Nicotinamide N-methyltransferase (Homo sapiens) (UniProt P40261). The settings on record: purified enzyme, MTase-Glo SAH luminescence; measured here: NNMT inhibition; at 40 µM; stronger effect = lower value.
Excerpt: as §1, §2, §3, §4, §5, §6, §7, §8, §9, §10, §11, §12, §13, §14, §15, §16, §17, §18, §19, §20, §21, §22, §23
8. […]

For experiment [5], the target named is Phenylethanolamine N-methyltransferase (Homo sapiens) (UniProt P11086). The note with it: purified enzyme, MTase-Glo SAH luminescence; measured here: PNMT inhibition; at 40 µM; stronger effect = lower value.
Excerpt: as §1, §2, §3, §4, §5, §6, §7, §8, §9, §10, §11, §12, §13, §14, §15, §16, §17, §18, §19, §20, §21, §22, §23
8. […]
% is scaled to controls: 0 for no effect and ±100 for the full control effect.

For the compound `C[C@H](Nc1ncnc2nc[nH]c12)c1cc2ccc(F)cc2nc1-c1ccccn1`, the activity change, negative = inhibition is 2.95% in experiment [1]; 3.93% in experiment [2]; 4.05% in experiment [3]; -8.97% in experiment [4]; 4.52% in experiment [5].

For `CC1CCN(CC2CCCCCN2C(=O)CC2CCCC2)CC1` (stereo not given), the activity change, negative = inhibition is -1.06% in experiment [1]; -0.353% in experiment [2]; 0.918% in experiment [3]; -3.72% in experiment [4]; -1.01% in experiment [5].

As to `CCCCN1CCN(C(=O)C2(c3ccc(NS(C)(=O)=O)cc3)CCCCC2)CC1`, the activity change, negative = inhibition is -3.37% in experiment [1]; -7.21% in experiment [2]; -2.56% in experiment [3]; -3.68% in experiment [4]; -1.22% in experiment [5].

Turning to `CCCCN1C(=O)c2cc(C(=O)NCc3ccc(Cl)cc3)nn2CC1(C)C(=O)NC1CCCC1` (stereo not given), the activity change, negative = inhibition in experiment [1] is 2.32%; in experiment [2], 2.48%; in experiment [3], 3.26%; in experiment [4], -2.84%; in experiment [5] it was 1.4%.

In the case of `CC1CCC(NC(=O)C2(C)Cn3c(nc4ccccc43)C(=O)N2Cc2ccc(F)cc2)CC1` (stereo not given), the activity change, negative = inhibition is -9.06% in experiment [1]; -8.54% in experiment [2]; -1.76% in experiment [3]; -17.3% in experiment [4]; -7.09% in experiment [5].

For the compound `CC1(C(=O)NC2CCCCC2)Cn2c(ccc2-c2ccco2)C(=O)N1Cc1ccccc1` (stereo not given), the activity change, negative = inhibition was -8.38% in experiment [1]; -2.96% in experiment [2]; 5.26% in experiment [3]; -11.5% in experiment [4]; -3.11% in experiment [5].

For `COc1cccc2c1OCC(NS(=O)(=O)c1ccc(Cl)cc1)C2` (stereo not given), the activity change, negative = inhibition in experiment [1] is -8.01%; in experiment [2], 4.99%; in experiment [3], 2.69%; in experiment [4], 5.11%; in experiment [5], 1.99%.

For `CCOc1ccccc1NC(=O)N1Cc2c(sc3c2CCCC3)-n2cccc2C1c1ccccc1` (stereo not given), the activity change, negative = inhibition in experiment [1] is -1.02%; in experiment [2] it was 0%; in experiment [3], 1.93%; in experiment [4] it was 1.44%; in experiment [5], 4.11%.

Consider `C[C@]1(CO)[C@H]2Cc3sc(NC(=O)c4ccco4)nc3[C@@H](CC(=O)NC3CCCC3)[C@]2(C)CC[C@H]1O`, for which the activity change, negative = inhibition in experiment [1] is -4.19%; in experiment [2], -2.21%; in experiment [3], -0.826%; in experiment [4] it was -5.87%; in experiment [5], -0.044%.

Take `CN(C)CCC(=O)N1Cc2ccccc2CC2(CCCN2Cc2cccnc2)C1` (stereo not given): the activity change, negative = inhibition was -4.12% in experiment [1]; 0.212% in experiment [2]; -4.23% in experiment [3]; -3.87% in experiment [4]; -8.34% in experiment [5].

Regarding `COc1cccc(CNC(=O)c2cn3cc(-c4cccc(OC)c4)sc3n2)c1`, the activity change, negative = inhibition is -9.97% in experiment [1]; -6.1% in experiment [2]; -3.33% in experiment [3]; -13% in experiment [4]; -2.15% in experiment [5].

Turning to `CC(CNC(=O)c1cc2n(n1)CC(C)(C(=O)NC1CCCCC1)N(C)C2=O)c1ccccc1` (stereo not given), the activity change, negative = inhibition in experiment [1] amounted to 8.26%; in experiment [2], 1.31%; in experiment [3] it was 5.43%; in experiment [4] it was 11%; in experiment [5], 3.85%.

In the case of `CC(C)NC(=O)c1ccc2c(=O)n(C(C)C)c3nn(CC(=O)Nc4ccc(Cl)cc4)c(=O)n3c2c1`, the activity change, negative = inhibition in experiment [1] turned out to be 8.26%; in experiment [2], 3.5%; in experiment [3], 10.9%; in experiment [4], 0.247%; in experiment [5] it was 6.88%.

With `CCC(C)NC(=O)c1ccc2c(=O)n(C)c3nnc(SCC(=O)c4ccc(F)cc4)n3c2c1` (stereo not given), the activity change, negative = inhibition in experiment [1] was 12.9%; in experiment [2] it was 0%; in experiment [3], 10.3%; in experiment [4] it was 13.5%; in experiment [5], 12.4%.

`COc1ccc(-c2nnc(-c3ccc(OC)c(S(=O)(=O)N4CCOCC4)c3)o2)cc1OC`: the activity change, negative = inhibition in experiment [1] is -1.68%; in experiment [2] it was 2.52%; in experiment [3] it was 13.6%; in experiment [4], 2.28%; in experiment [5], 10.1%.
